A collection of fitness landscapes (doi:10.1016/j.celrep.2020.107928)
In all, about 81,000 sequences were measured (“one-hybrid fitness for binding NBS DNA”: median about -0.1, highest 2% from about 0.36 on). Some of the results follow.

B1: Caulobacter ParB omega fusion; a variant is named by its letters at X, in order, B8GW30 (parent)
chain: MESVVVGEPGMSEGRRGLGRGLSALLGEVDAAPAQAPGEQLGGSREAPIEILQRNPDQPRRTFREEDLEDLSNSIREKGVLQPILVRPSPDTAGEYQIVAGERAWRAAQRAGLKTVPIMVRELDDLAVLEIGIIENVQRADLNVLEEALSYKVLMEKFERTQENIAQTIGKSXSHVANXMRLLXLPDEVQSYLVSGELTAXHARAIAAAADPVALAKQIIEGGLSVRETEALARKAPNLSAGKSKGGRPPRVKDTDTQALESDLSSVLGLDVSIDHRGSTGTLTITYATLEQLDDLCNRLTRGI

Variants of: B1
Test: one-hybrid fitness for binding NBS DNA (the Noc-binding site; scaled: cognate 1, non-cognate 0); higher = stronger binding
Conditions: with NBS DNA site
Method in brief: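 Fitness is the rescaled log change in variant-to-wild-type read ratio, measured by Illumina sequencing of plasmids before and after bacterial one-hybrid selection. The scale puts cognate at 1 and non-cognate at 0. Selection of Caulobacter ParB libraries, four specificity codons randomised, took place in E. coli USO with a HIS3 reporter, site 19 bp from the promoter, over 48 hours at 37°C on M9-minus-histidine with 0.1 mM IPTG and 5 mM 3-AT.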

one-hybrid fitness for binding NBS DNA, 0.523:
QHQR

one-hybrid fitness for binding NBS DNA, ≤ 0.2:
IHPK
LMPL
FTIN
MLQW
DIAI
CCPM
LTQY
VIKG
HSKT
TSVL
HMER
ARES
NFKR
PFKL
FMVS
LVHE
PSAQ
CQFG
QGNH
QVPF
LVTK
NHEL
SPTA
LGQH
DFVC
CTHT
ITPW
STCD
RQAG
RKRP
RHWK
RIFL
LTYI
SSVS
PGPL
EDLT
GQVY
GHCC
ERPS
YPKA
LKCH
SWWS
FALT
YFSM
ATGG
ADKC
GIER
ANTC
TETY
YINT
YGPL
KSSG
DWTV
LNCS
PNKA
PAHR
ASSM
RERW
GPCS
DLPL
QSWD
LNTL
RDRL
NEHI
AQYT
KTSA
RLWV
WEIT
ICHG
NWQY
MRCC
PWAA
PYKH
KSFT
EYSR
THTA
FRPR
APKW
NTSK
IYPT
GMHF
YWKN
RNRK
NRAY
AMFA
AWTC
WTVP
HNMP
RYHF
PEER
ICSR
SDIM
PVDI
LDSD
FHRK
TLWC
SYKH
WENR
DDYR
VLFT
KLGL
WLNP
ATRI
RADS
PLAF
YLRA
LYCR
PGED
HSVN
SFRG
AKMA
HTLH
DQEG
QHEG
PALV
REQT
QKFC
YVLI
WGRC
EDFV
YSSI
YTSD
PSGC
VYCV
QIWY
SRGG
YSTG
WGIG
RHGY
STSG
NRIR
CYHT
NCQT
RTFF
RGKF
GINR
FWKY
RGSN
TQMS
GKMT
MRDG
RKTG
FTCS
NMKW
ESAR
WWSR
HRDE
PWKR
TTMA
TKRK
MTDN
CTAL
KKFG
IVGT
SCPC
WNIP
SHDL
TMQG
SYKI
QLMM
QQMP
KYRK
VAKP
HHPP
SLFR
CCPD
SRRM
QLSY
TKTH
RSRL
NTQA
AFNT
DITP
DSKR
QANM
WVRF
TTAK
FHGR
PSVK
ITTR
SRIR
CTLG
SDAI
RVVL
CCAS
MRDY
ISCR
AEVH
RVSP
LCHL
HKWV
IHPT
MEVV
RNVI
VHYR
RLLH
CRQL
LVPE
LKDF
PYRS
SELS
NRKS
RFGL
SWFR
YQLS
MEFS
PCAF
PQPC
MSCG
GWYW
CRPT
FFVP
TTGN
HSAM
MFLN
MHFG
PAFR
VVDL
QMWD
TMVG
RHFI
VTER
PCST
VNPR
SLDG
PSGL
NGLP
ICCS
EGEG
YASN
RYCH
PRKG
YTYT
ETQR
VRRL
PVSA
ADVY
RYYY
LCKF
GCLC
HRPT
TDPL
CRQN
RICI
ACMG
FCQG
VQPE
ILQG
LFQI
LWHE
AELI
PNMF
TRVK
SGLR
EMHG
LPRK
QCFG
RPWE
YVNA
VTLK
QYEI
SMQT
WPKR
CLAL
PPSP
VHWG
STSS
SRSR
FELF
GSDR
RQSP
DSEG
HEGQ
GDRE
RETT
QQHF
STRE
SSHS
SHSE
HKGG
NNTC
PPNS
RIFI
PAPD
RKNF
HPPK
PLAD
SPTF
DDVV
FAHM

one-hybrid fitness for binding NBS DNA, 0.313:
QMKD

one-hybrid fitness for binding NBS DNA, 0.245:
RRGG

one-hybrid fitness for binding NBS DNA, 0.24:
NPKR

one-hybrid fitness for binding NBS DNA, 0.275:
QKES

one-hybrid fitness for binding NBS DNA, 0.332:
MRKT

one-hybrid fitness for binding NBS DNA, 0.211:
QKKD

one-hybrid fitness for binding NBS DNA, 0.417:
QYHT

one-hybrid fitness for binding NBS DNA, 0.478:
QCRK

one-hybrid fitness for binding NBS DNA, 0.243:
RRTQ

one-hybrid fitness for binding NBS DNA, 0.288:
QMRW

one-hybrid fitness for binding NBS DNA, 0.254:
QRWM

one-hybrid fitness for binding NBS DNA, 0.308:
KRIS

one-hybrid fitness for binding NBS DNA, 0.643:
RRSS

one-hybrid fitness for binding NBS DNA, 0.469:
QRES

one-hybrid fitness for binding NBS DNA, 0.277:
QMRD
